Measured values from the RNAGym collection of RNA variant scans (doi:10.1093/nar/gkz1192).
The source gives no read counts; variants with many changes may rest on few reads.

B1: CPEB3 Ribozyme (parent)
chain: UAACAGGGGGCCACAGCAGAAGCGUUCACGUCGCAGCCCCUGUCAGAUUCUGGUGAAUCUGCGAAUUCUGCUGUAUAUCUC

Variants of: B1
Assay: self-cleavage, relative activity (ratio to wild type); higher = more cleavage; in vitro, sequencing
In short: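 Libraries of CPEB3 self-cleaving ribozyme mutants came from rounds of error-prone PCR and carried barcodes, which DNA sequencing matched to variants. In vitro transcription used T7 RNA polymerase at 37°C for 5 hours, with a further 15 min in DNase I before EDTA stopped the reaction; the ribozymes cleaved during both steps. The RNA was reverse transcribed with template switching and sequenced on Illumina. Relative activity is the cleaved/total read fraction of a variant divided by that of the unmutated ribozyme, averaged over three batches with at least 5 reads.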

| Variant | self-cleavage |
| --- | --- |
| UAACGGGGGGCCACAGCAGAAGCGUUCUCGCCGCAGCCCCUGUCAGAUUCUAGUGAAUCUGCGAAUUCUGCUGUAUAUCUC [A5G A28U U31C G52A] | 0.16 |
| UAACGGGGGGCCACAGCAGAAGCGUUCUCGUCGCAGCCCCUGACAGAUUCUGGUGAAUCUGCGAACACUGCCGCAUAUCUC [A5G A28U U43A U66C U67A U72C U74C] | 0.32 |
| UAACGGGGGGCCACAGCAGAAGCGUUCUCGUCGCAGCCCCUGUCAGAUCCUGGUGGAUCUGCGAAUUCCGCUGUAUAUCUC [A5G A28U U49C A56G U69C] | 0.16 |
| UAACGGGGGGCCACAGCAGAAGCGUUCUCGUCGCAGCCCCUGUCAGAUUCUGGAGGAUCUGCGAAUUCUGCUGUAUAUCUC [A5G A28U U54A A56G] | 0.18 |
| UAACGGGGGGCCACAGCAGAAGCGUUCUCGUCGCAGCCCCUGUCAGAUUCUGGUGAAUCUGCGAAUUCUGCCGUAUGUCUC [A5G A28U U72C A77G] | 0.58 |
| UAACGGGGGGCCACAGCAGAAGCGUUCACGUCGCCGCCCCUGCCAGAUUCUGGUGAAUCUGCGAAUUCUGCUGUAUGUCUC [A5G A35C U43C A77G] | 0.54 |
| UAACGGGGGGCCACAGCAGAAGCGUUCACGUCGCCGCCCCUGUCAGAUUCCGGUGAAUCUGCGAAUUCUGCUGUAUAUCUC [A5G A35C U51C] | 0.55 |
| UAACGGGGGGCCACAGCAGAAGCGUUCACGUCGCCGCCCCUGUCAGAUUCCGGUGAAUCUGCGAAUUCUGCUGAAUAUCUC [A5G A35C U51C U74A] | 0.58 |
| UAACGGGGGGCCACAGCAGAAGCGUUCACGUCGCGGCCCCUGUCUGAUUCUGGUGAAUCUGCGAAUUCUGCAGUAUAUCUC [A5G A35G A45U U72A] | 0.32 |
| UAACGGGGGGCCACAGCAGAAGCGUUCACGUCGCGGCCCCUGUCAGGUUCUGGUGAAUCUGCGAAUUCUGCUGUAUAUCUC [A5G A35G A47G] | 1.21 |
| UAACGGGGGGCCACAGCAGAAGCGUUCACGUCGCGGCCCCUGUCAGGUUCUGGUGGAUCUGCGAAUUCUGCUGUAUAUCUC [A5G A35G A47G A56G] | 1.08 |
| UAACGGGGGGCCACAGCAGAAGCGUUCACGUCGCGGCCCCUGUCAGAUUCUGGUGUAUCUGCGAGUUCUGCUGUAUAUCUC [A5G A35G A56U A65G] | 0.6 |
| UAACGGGGGGCCACAGCAGAAGCGUUCACGUCGCGGCCCCUGUCAGAUUCUGGUGAAUCUGCGAUCUCCGCUGUAUAUCUC [A5G A35G A65U U66C U69C] | 0.29 |
| UAACGGGGGGCCACAGCAGAAGCGUUCACGUCGCGGCACCUGUCAGAUUCUGGUGAAUCUGCGGAAUCUGCUGUAUAUCUC [A5G A35G C38A A64G U66A] | 0.08 |
| UAACGGGGGGCCACAGCAGAAGCGUUCACGUCGCGGCCCCUGUCAGAUUCUGGUGAAUCUGCGAAUUUUGCUGCAUAUCUC [A5G A35G C68U U74C] | 1.22 |
| UAACGGGGGGCCACAGCAGAAGCGUUCACGUCGCGACCCCUGUCCGAUUCUGGCGAAUCUGCGAAUCCUGCUGUAUAUCUC [A5G A35G G36A A45C U54C U67C] | 0.09 |
| UAACGGGGGGCCACAGCAGAAGCGUUCACGUCGCGCCCCCUGUCAGAUUCUGGUGAAUCUGCGAAUUCUGCUGUAUAUCUC [A5G A35G G36C] | 1.12 |

| Variant | self-cleavage |
| --- | --- |
| UAACGGGGGGCCACAGCAGAAGCGUUCACGUCGCGGCCCCUGCCAGAUUCUGGUGAAUCUGCGGAUUCUGCUGUAUAUCUC [A5G A35G U43C A64G] | 1.02 |
| UAACGGGGGGCCACAGCAGAAGCGUUCACGUCGCGGCCCCUGUCAGAUUCUGGCGAAUCUGCGAAUUCUGCUGUUUACCUC [A5G A35G U54C A75U U78C] | 1.17 |
| UAACGGGGGGCCACAGCAGAAGCGUUCACGUCGCGGCCCCUGUCAGAUUCUGGUGAAUCCGCGAAUUCUGCUGUAUAUCUC [A5G A35G U60C] | 0.6 |
| UAACGGGGGGCCACAGCAGAAGCGUUCACGUCGCGGCCCCUGUCAGAUUCUGGUGAAUCUGCGAAUUCCGCUGUAUAUCUC [A5G A35G U69C] | 0.71 |
| UAACGGGGGGCCACAGCAGAAGCGUUCACGUCGCGGCCCCUGUCAGAUUCUGGUGAAUCUGCGAAUUCUGCCGUAUAUCUC [A5G A35G U72C] | 1.18 |
| UAACGGGGGGCCACAGCAGAAGCGUUCACGUCGCGGCCCCUGUCAGAUUCUGGUGAAUCUGCGAAUUCUGCCGUAUACCUC [A5G A35G U72C U78C] | 1.25 |
| UAACGGGGGGCCACAGCAGAAGCGUUCACGUCGCGGCCCCUGUCAGAUUCUGGUGAAUCUGCGAAUUCUGCUGAAUAUCUC [A5G A35G U74A] | 1.24 |
| UAACGGGGGGCCACAGCAGAAGCGUUCACGUCGCUGCCCCUGUCGGAUUCUGGUGAAUCUGCGAAUUCUGCUGUAUAUCUC [A5G A35U A45G] | 0.34 |
| UAACGGGGGGCCACAGCAGAAGCGUUCACGUCGCUGCCCCUGUCAGAUUCUGGUGCAUCUGCGAAUUCUGCUGUAUAUCUC [A5G A35U A56C] | 0.33 |
| UAACGGGGGGCCACAGCAGAAGCGUUCACGUCGCUGCCCCUGUCAGAUUCUGGUGUAUCUGCGAAUUCUGCUGUAUAUCUC [A5G A35U A56U] | 0.22 |
| UAACGGGGGGCCACAGCAGAAGCGUUCACGUCGCUGCCCCUGUCAGAUUCUGGUGAAUCUGCGAGUUCUGCAGUAUAUCUC [A5G A35U A65G U72A] | 0.15 |
| UAACGGGGGGCCACAGCAGAAGCGUUCACGUCGCUGCCCCUGUCAGAUUCUGGUGAAUCUGCGAAUUCUGCUGUGUAUCUC [A5G A35U A75G] | 0.16 |
| UAACGGGGGGCCACAGCAGAAGCGUUCACGUCGCUGCCCUUGUCAGAUUCUGGUGAAUCUGCGAAUUCUGCUGUAUAUCUC [A5G A35U C40U] | 0.26 |
| UAACGGGGGGCCACAGCAGAAGCGUUCACGUCGCUGCCCCUGUCAGAUUCUCGUGAAUCUGCGAAUUCUGCUGUAUAUCUC [A5G A35U G52C] | 0.7 |
| UAACGGGGGGCCACAGCAGAAGCGUUCACGUCGCUGCCCCUGACAGAUUCUGGUGAAUCUGCGAAUUCUGCUGUAUAUCUC [A5G A35U U43A] | 0.48 |
| UAACGGGGGGCCACAGCAGAAGCGUUCACGUCGCUGCCCCUGACAGAUUCUGGUGAUUCUGCGAAUUCUGCUGUAUAUCUC [A5G A35U U43A A57U] | 0.07 |
| UAACGGGGGGCCACAGCAGAAGCGUUCACGUCGCUGCCCCUGCCAGAUUCUGGCGAAUCUUCGAAUUCUGCUGUAUAUCUC [A5G A35U U43C U54C G61U] | 0.21 |
